Experimental data as given in PubChem BioAssay AID686979 (National Center for Advancing Translational Sciences (NCATS), 2013).
Out of some 420,000 compounds screened, about 50,000 (12%) were called active. Inconclusive results, whose numbers are uncertain, are shown with a selection of clear calls. Calls come from the whole dose curve; as a rule, active = well fitted inhibition curve with a large enough effect; inconclusive = small, poorly fitted or top-dose-only effect; inactive = flat fitted curve, though single readings scatter. No potency is given beside an inconclusive call; the fits are too rough.
% is set by controls: 0 for no effect and ±100 for the full control effect; potency is the fitted concentration of half-maximal effect; tags give direction and shape of the fitted curve.

Experiment: qHTS for Inhibitors of human tyrosyl-DNA phosphodiesterase 1 (TDP1): qHTS in cells in presence of CPT; note: nearly all actives have a fitted effect of over 55% in size
Conditions: chicken DT40 Tdp1-/-;hTDP1 cells + 20 nM CPT, ATP luminescence, 48 h; activity change, negative = growth inhibition: at 46.2 µM (top of the series)
Procedure, shortened: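 Chicken DT40 Tdp1-/- cells complemented with human TDP1, 400 cells/well, exposed to compounds plus 20 nM camptothecin for at least 48 h at 37 C; viability read as ATP content by CellTiter-Glo luminescence.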
In the case of `O=S(=O)(c1ccc(Cl)c(F)c1)N1CCC(c2nc(-c3ccncc3)no2)CC1`, the Potency is reported as inconclusive [inhibitor, single point]. With `Cc1ccc(C(=O)c2sc(Nc3ccccc3)c(C#N)c2N)cc1` the Potency was inconclusive [inhibitor, single point]. In the case of `CCc1ccc(CN2CCc3nc(Nc4ccc5c(c4)OCCO5)ncc3C2)cc1`, the Potency is reported as inconclusive [inhibitor, single point]. In the case of `CCCCOc1ccc(C(=O)N2CCN(c3ccc(N4CCOCC4)nn3)CC2)cc1`, the Potency is reported as active: 23.1 µM. In the case of `COC(=O)CN(C)C(=O)c1cccc(OC2CCN(S(=O)(=O)N(C)C)CC2)c1`, the “activity change, negative = growth inhibition” value is reported as inactive: -15.3%. With `CCc1ccc(CNc2nc3nc(C)c(Cc4ccccc4)c(=O)n3[nH]2)cc1` the Potency was inconclusive [inhibitor, single point]. In the case of `COc1ccccc1CNC(=O)C(=O)NCC(c1ccc2c(c1)OCO2)N1CCOCC1` (stereo not given), the Potency is reported as inconclusive [inhibitor, single point]. In the case of `O=C(Nc1cc(Cl)ccc1O)C1CCCO1` (stereo not given), the activity change, negative = growth inhibition is reported as inconclusive: -32.3% [inhibitor]. In the case of `CC(=O)Nc1ccc(NC(=O)C(C)OC(=O)C2CC(=O)N(CCc3ccccc3)C2)cc1` (stereo not given), the “activity change, negative = growth inhibition” value is reported as inactive: 2.76%. For `COc1ccc(NC(=O)N2CCN(c3nc(-c4cccc(OC)c4)cs3)CC2)cc1`, the Potency was active: 23.1 µM. With `Cc1cccc([C@@H]2[C@@H]3C(=O)N(Cc4ccccc4)C(=O)[C@@H]3[C@]3(C)C(=O)N(c4ccc(Br)cc4)C(=O)N23)c1` the Potency was inconclusive [inhibitor, single point]. With `COc1ccc(NC(=O)CSc2ccc(-c3sc(C)nc3C)nn2)cc1OC` the Potency was inconclusive [inhibitor, single point]. For `COc1ccc(CCNC(=O)Nc2cc(F)c(F)cc2Cl)cc1OC`, the Potency was active: 23.1 µM. In the case of `CC(C)=CCc1c(O)cc(O)c2c1OC(c1ccc(O)cc1)CC2=O` (stereo not given), the Potency is reported as inconclusive [inhibitor, single point]. With `O=C(NCCc1ccncc1)Nc1ccccc1Cl` the “activity change, negative = growth inhibition” value was inactive: 0.251%. For `CCc1ccc2nc(N3CCN(C(=O)c4ccco4)CC3)sc2c1`, the Potency was inconclusive [inhibitor, partial curve]. With `O=C(NCc1ccccc1)C1=C[C@@H](c2ccccc2)C[C@@H](OCCCCO)O1` the Potency was inconclusive [inhibitor, single point]. For `COc1ccc(Cl)cc1CN1C(=O)C(Cc2ccccc2)ON=C1C` (stereo not given), the Potency was inconclusive [inhibitor, single point]. For `CCc1nc2c(OCc3ccc(OC(F)F)cc3)cccn2c1N(C)C(=O)c1ccco1`, the Potency was inconclusive [inhibitor, single point]. With `CC(=O)c1cccc(NC(=O)C2=CC(c3ccco3)=NS(=O)(=O)N2C)c1` the Potency was inconclusive [inhibitor, single point]. For `CC(C)c1ccc(/C=N/NC(=O)c2ccc(-n3cnnn3)cc2)cc1`, the Potency was inconclusive [inhibitor, single point]. With `CCOc1cc(C(N)=O)cc(Cl)c1OCC` the Potency was inconclusive [inhibitor, single point]. With `COc1ccc(C2=Nn3c(nnc3-c3ccco3)SC2)cc1` the Potency was inconclusive [inhibitor, single point]. With `Cc1cc(N2CCN(c3ccccn3)CC2)n2cc(-c3ccccc3)nc2n1` the Potency was active: 20.6 µM. For `COc1cccc(NC(=O)CSc2nncn2N)c1`, the Potency was inconclusive [inhibitor, single point]. For `COc1cccc(-n2nnc3c(=O)n(CC(=O)N4CCCc5ccccc54)cnc32)c1`, the Potency was inconclusive [inhibitor, single point]. In the case of `Cc1cc(C)n(-c2ccc(C(=O)O)cc2[N+](=O)[O-])n1`, the “activity change, negative = growth inhibition” value is reported as inactive: 14.8%. For `CCCCN(CC)C(=O)c1cc2c(=O)[nH]c3ccc(C)cc3c2s1`, the Potency was inconclusive [inhibitor, single point]. With `COc1ccc(S(=O)(=O)NC(=O)C2(C)CCN2C(=O)c2c(C)noc2C)cc1` (stereo not given) the “activity change, negative = growth inhibition” value was inactive: -1.19%. With `C/C=C1\COC(C(=O)NCc2ccncc2)(C(F)(F)F)C=C1C=C1CCCCC1` (stereo not given) the Potency was inconclusive [inhibitor, partial curve]. With `Nc1nc(NCCCN2CCOCC2)nc(Nc2ccccc2)c1[N+](=O)[O-]` the Potency was inconclusive [inhibitor, single point]. In the case of `O=C(NC(=S)Nc1ncccn1)c1ccccc1Br`, the “activity change, negative = growth inhibition” value is reported as inactive: -26.7%. In the case of `CCOc1cccc(C(=O)Nc2cccc(C(=O)NC(C)(C)C)c2)c1`, the Potency is reported as inconclusive [inhibitor, partial curve, poor fit]. For `Cc1cccc(S(=O)(=O)c2cn(Cc3ccccc3)c3cc(N4CCCC(C)C4)c(F)cc3c2=O)c1` (stereo not given), the “activity change, negative = growth inhibition” value was inactive: -35.9%. In the case of `CCOc1ccc(S(=O)(=O)Nc2ccc(-c3ccc(N4CCCC4)nn3)cc2)cc1`, the “activity change, negative = growth inhibition” value is reported as inactive: 1.57%. With `COc1cc(C2Nc3ccccc3C(=O)N2Cc2ccccc2)ccc1OCc1ccccc1` (stereo not given) the Potency was inconclusive [inhibitor, single point]. In the case of `CC1(C)C(C=C(Cl)Cl)C1C(=O)N(Cc1ccc(Cl)cc1)C1CCS(=O)(=O)C1` (stereo not given), the Potency is reported as inconclusive [inhibitor, single point]. With `COc1cccc(C(O)c2nc(-c3ccc(Cl)cc3)cs2)c1` (stereo not given) the Potency was inconclusive [inhibitor, single point]. With `Cc1cccc(OCC(=O)NC(=S)Nc2ccc(S(=O)(=O)NC3CCCCC3)cc2)c1` the Potency was inconclusive [inhibitor, single point]. For `CCCCN1CC(Br)C(=O)NC1=O` (stereo not given), the Potency was active: 14.6 µM. With `Cc1cccc2sc(N3CCN(C(=O)c4ccco4)CC3)nc12` the Potency was inconclusive [inhibitor, single point]. With `CC1(C)Cc2c(cnn2-c2ccc(F)cc2)C(NC(=O)C2=CC(=O)CC(C)(C)O2)C1` (stereo not given) the Potency was inconclusive [inhibitor, single point]. In the case of `CCCCC(=O)OCC(=O)c1cc(C)n(-c2c(C)n(C)n(-c3ccccc3)c2=O)c1C`, the “activity change, negative = growth inhibition” value is reported as inactive: 6.35%. For `COc1ccccc1NC(=O)Cc1csc(NC(=S)Nc2ccc(C)cc2)n1`, the Potency was inconclusive [inhibitor, single point]. With `O=c1c(-c2ccc(F)c(F)c2)nc2cncnc2n1Cc1ccccc1Cl` the Potency was inconclusive [inhibitor, single point]. With `CCOC(=O)c1sc(N)c(C(=O)Nc2ccccc2OC)c1C` the Potency was active: 2.91 µM. For `COc1ccc(NC2c3ccccc3C(=O)N2c2cccnc2)cc1Cl` (stereo not given), the Potency was inconclusive [inhibitor, partial curve, poor fit]. For `CCOc1ccc(C(=O)CSCCC(=O)O)cc1`, the “activity change, negative = growth inhibition” value was inactive: -2.47%. For `COCCNC(=O)C1(C)CCN(C(=O)c2cccnc2Oc2ccccc2)C1` (stereo not given), the “activity change, negative = growth inhibition” value was inactive: 4.68%. In the case of `CCCC(NC(=O)c1ccc(Br)o1)c1nc2ccccc2[nH]1` (stereo not given), the Potency is reported as active: 16.4 µM. For `Cc1cc(NC(=O)C2CCCN(S(=O)(=O)c3cccc4nonc34)C2)ccc1Br` (stereo not given), the Potency was inconclusive [inhibitor, single point]. For `O=C(CSc1nnnn1-c1ccc(O)cc1)Nc1cccc(S(=O)(=O)N2CCCC2)c1`, the Potency was inconclusive [inhibitor, single point]. With `CCc1ccc(OCCSc2nc3ccccc3n2CC(=O)O)cc1` the “activity change, negative = growth inhibition” value was inactive: 3.14%. With `COc1ccc(S(=O)(=O)N2CCc3ccccc32)cc1[N+](=O)[O-]` the Potency was active: 23.1 µM. For `Cc1ccc(Nc2nc3ccccc3c(=O)[nH]2)cc1C`, the Potency was inconclusive [inhibitor, single point]. With `COCCn1c(SCC(=O)c2c(N)n(C3CC3)c(=O)[nH]c2=O)nc2ccccc21` the “activity change, negative = growth inhibition” value was inactive: -2.02%. For `COc1ccc(OCC(=O)N(C)CC2COc3ccccc3O2)cc1` (stereo not given), the Potency was active: 18.4 µM. For `Cc1nn(-c2ccc(F)cc2)c(Cl)c1C(=O)NCC1CCCO1` (stereo not given), the “activity change, negative = growth inhibition” value was inactive: 5.4%. For `CCc1ccc(N(C(=O)c2snc(C(N)=O)c2N)C(C(=O)NC2CCCC2)c2ccncc2)cc1` (stereo not given), the Potency was inconclusive [inhibitor, partial curve]. In the case of `COc1cccc(C2C(=O)N(C3CCCCC3)CC(=O)N2Cc2ccc(F)cc2)c1` (stereo not given), the Potency is reported as inconclusive [inhibitor, single point]. For `O=C(c1c[nH]c2ccccc12)C(F)(F)F`, the Potency was inconclusive [inhibitor, single point]. For `COCCCNC(=O)CCc1nnc(Cc2ccc(-c3ccccc3)cc2)o1`, the Potency was inconclusive [inhibitor, partial curve, poor fit]. For `CC(NC(=O)c1cc(S(=O)(=O)N(C)C)ccc1Cl)c1ccc(-n2ccnc2)cc1` (stereo not given), the “activity change, negative = growth inhibition” value was inactive: -1.81%. With `Cc1ccc(NCCC(=O)c2ccc(Br)cc2)cc1` the Potency was inconclusive [inhibitor, single point]. With `COc1cccc(-n2c(SCC(=O)Nc3nccs3)nnc2-c2ccoc2C)c1` the activity change, negative = growth inhibition was inconclusive: -31.3% [inhibitor]. In the case of `COc1cc(C(=O)N(C)C2CCCCC2)cc(OC)c1OC`, the activity change, negative = growth inhibition is reported as inconclusive: -31.1% [inhibitor]. In the case of `COc1cccc(NC(=O)CSc2nc3c(c(=O)n2C)SC(C)C3)c1` (stereo not given), the Potency is reported as inconclusive [inhibitor, single point]. For `C=CCn1c(Cn2c(-c3cnccn3)nc3ccccc32)nc2ccccc21`, the “activity change, negative = growth inhibition” value was inactive: -19.6%. With `CCOC(=O)Cn1c(SC)nc2sc3c(c2c1=O)CC(C)(C)OC3` the Potency was inconclusive [inhibitor, partial curve]. For `CC(=O)c1ccc(NC(=O)COC(=O)CCc2ccc(S(=O)(=O)N3CCOCC3)cc2)cc1`, the “activity change, negative = growth inhibition” value was inactive: 10.6%.
